Test results taken from PubChem BioAssay AID485294 (National Center for Advancing Translational Sciences (NCATS), 2010).
About 150 (0.041%) of roughly 370,000 compounds were called active. This list was built around the results that the source calls inconclusive (neither active nor inactive); the mix of calls is not that of the screen. The call rests on the fitted dose curve; in most records, active means well fitted inhibition curve with a large enough effect; inconclusive means small, poorly fitted or top-dose-only effect; inactive means flat fitted curve, though single readings scatter. Potencies of inconclusive entries are left out as doubtful fits.

target: Beta-lactamase (Escherichia coli (strain K12)) (UniProt P00811); assay: qHTS Inhibitors of AmpC Beta-Lactamase (assay with detergent); settings: AmpC hydrolysis of nitrocefin, absorbance 480 nm, 0.01% Triton; activity change, negative = inhibition: at 114 µM (top of the series); further: nearly all actives have a fitted effect of over 25% in size;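 on activity change, negative = inhibition: 0% = no-compound wells and -100% = no-enzyme wells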
UniProt P00811, sequence (P00811 whole entry, looked up): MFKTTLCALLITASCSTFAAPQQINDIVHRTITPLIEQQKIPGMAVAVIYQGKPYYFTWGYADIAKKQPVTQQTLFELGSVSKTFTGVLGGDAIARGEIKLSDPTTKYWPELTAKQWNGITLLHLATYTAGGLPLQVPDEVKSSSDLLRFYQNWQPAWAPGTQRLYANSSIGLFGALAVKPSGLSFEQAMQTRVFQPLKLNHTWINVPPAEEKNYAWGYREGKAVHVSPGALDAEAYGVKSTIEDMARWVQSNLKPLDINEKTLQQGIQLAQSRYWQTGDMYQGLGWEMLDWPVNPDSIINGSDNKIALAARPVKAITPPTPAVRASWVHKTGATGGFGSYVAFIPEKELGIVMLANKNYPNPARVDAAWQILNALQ
In short: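 AmpC (5.3 nM in the dispensed reagent) in 20 mM phosphate pH 7.0 with 0.01% (detergent screen) or 0.0001% Triton X-100 was preincubated with compounds for 15 min at room temperature. Nitrocefin was then added from an 800 uM solution, and hydrolysis was followed at 480 nm.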
Potency means the concentration at half of the fitted maximal effect; tags describe the fitted curve by direction and shape.

SMILES | activity change, negative = inhibition | Potency
Cc1cccc(-n2c3nc(=O)[nH]c(=O)c-3cc3ccc(Cl)cc32)c1C | inactive: 0.567% | –
CC(=O)N(C)c1ccc(N=Cc2c(O)ccc3ccccc23)cc1 | – | inconclusive [inhibitor, partial curve, poor fit]
O=C1[C@@H]2Cc3c([nH]c4ccccc34)[C@@H](c3ccccc3)N2C(=O)[C@@H]2Cc3c([nH]c4ccccc34)[C@@H](c3ccccc3)N12 | – | inconclusive [inhibitor, full curve, poor fit]
COc1ccc(OC)c(-c2noc(N3CCN(c4cccc(C(F)(F)F)c4)CC3)n2)c1 | inactive: -5.7% | –
O=C(OCc1cc(=O)n2cc(Br)ccc2n1)C1COc2ccccc2O1 (stereo not given) | – | inconclusive [inhibitor, single point]
CCCn1c(SCC(=O)Nc2cccc(C(=O)OCC)c2)nnc1-c1ccoc1C | – | inconclusive [inhibitor, full curve]
Nc1ccc2c(c1)N1CCN=C1S2 | – | inconclusive [inhibitor, full curve, poor fit]
Cc1ccc(/C=C/C(=O)N2CC(=O)Nc3ccccc32)o1 | inactive: 1.03% | –
COc1ccc(OCCCn2c(C3CC(=O)N(c4ccc(F)cc4)C3)nc3ccccc32)cc1 (stereo not given) | inactive: 20.7% | –
O=c1c(NCCc2ccccc2)c(-c2ccccc2)c1=O | inactive: 0.713% | –
COc1ccc(CNC(=O)c2coc(=O)c3ccccc23)c(OC)c1 | – | inconclusive [inhibitor, full curve]
O=C(COc1ccccc1-c1nc(-c2ccccc2)no1)Nc1ccc([N+](=O)[O-])cc1 | inactive: -11.6% | –
Cc1nnc(SCC(=O)N2CCCCC2)n1CC1CCCO1 (stereo not given) | – | inconclusive [inhibitor, single point]
COCCCNC(=S)N(CCO)Cc1cc2cc3c(cc2[nH]c1=O)OCCO3 | – | inconclusive [inhibitor, full curve, poor fit]
Cc1c(CC(=O)NCCc2ccccc2)c(=O)oc2c(C)c3occ(C(C)(C)C)c3cc12 | inactive: 6.03% | –
O=C(NC1CCCCC1)c1ccc(CSc2nc3cccnc3n2Cc2ccccc2)cc1 | inactive: 18.6% | –
CC1=C(c2ccc(C(C)C)cc2)S(=O)(=O)N=C1N1CCC(C(=O)NCc2ccc(C)o2)CC1 | inactive: 23% | –
COc1ccccc1-n1c(-c2cc(-c3ccc(F)cc3)n[nH]2)n[nH]c1=S | inactive: -6.89% | –
Cc1oc(C(C)(C)C)cc1C(=O)Nc1cccc(/C=C/C(=O)O)c1 | – | inconclusive [inhibitor, full curve, poor fit]
COc1ccc(C2=C(C)CC(C)(C)NC2=O)cc1OC | – | inconclusive [inhibitor, partial curve]
CCOC(=O)N1CCN(C(=O)CNC(=O)c2ccc(Cl)cc2Cl)CC1 | – | inconclusive [inhibitor, full curve, poor fit]
O=C(/C(=N\Nc1ccccc1)Sc1nnnn1-c1ccccc1)c1ccccc1 | – | inconclusive [inhibitor, partial curve, poor fit]
O=C(Cn1ncc2ccccc21)N1CCc2ccccc21 | – | inconclusive [inhibitor, full curve]
CC(=O)NC(C)c1ccc(Cl)c(Cl)c1 (stereo not given) | – | inconclusive [inhibitor, full curve, poor fit]

SMILES | activity change, negative = inhibition | Potency
COc1ccccc1CNC(=O)Cc1ccccc1 | inactive: -12.3% | –
COc1ccc(C(=O)Nn2c(SCC(=O)NCc3ccccc3)nc3ccccc3c2=O)cc1 | – | inconclusive [inhibitor, full curve, poor fit]
O=C(Nc1ccc(OC(F)(F)F)cc1)c1[nH]ncc1[N+](=O)[O-] | inactive: -4.39% | –
COc1ccc(/C=C2\N=C(C)N(c3ccc4ccccc4c3)C2=O)cc1OC | – | inconclusive [inhibitor, single point]
CC1CCN(C(=O)CSCC(=O)Nc2nc(-c3cccs3)cs2)CC1 | – | inconclusive [inhibitor, full curve]
COc1c(OC2OC(C(=O)O)C(O)C(O)C2O)cc(O)c2c(=O)cc(-c3ccccc3)oc12 (stereo not given) | – | inconclusive [inhibitor, partial curve, poor fit]
Cc1occc1C(=O)N=Nc1c(O)[nH]c2ccc(Br)cc12 | inactive: 2.02% | –
COc1cc(CN2CCN(S(=O)(=O)c3ccccc3)CC2)cc(OC)c1OC | – | inconclusive [inhibitor, partial curve]
CCOc1ccc(S(=O)(=O)N2CCC(C(=O)NCc3ccccn3)CC2)cc1C | inactive: -9.27% | –
CS(=O)(=O)N1CCN(c2ccccc2NC(=O)c2ccc(Cl)cc2)CC1 | – | inconclusive [inhibitor, full curve, poor fit]
CC(OC(=O)c1ccccn1)C(=O)Nc1ccc(C(F)(F)F)cc1 (stereo not given) | – | inconclusive [inhibitor, full curve, poor fit]
O=C(CCCN1C(=O)CSc2ncccc21)N1CCN(Cc2ccccc2)CC1 | – | inconclusive [inhibitor, full curve, poor fit]
FC(F)(F)c1cccc(Nc2nc3nonc3nc2Nc2ccc(Cl)cc2)c1 | inactive: 15.1% | –
O=C(c1ccc(-n2cccc2)cc1)N1CCCCC1 | – | inconclusive [inhibitor, full curve, poor fit]
Cc1ccc(C(O)Cn2nc(C)cc2C)cc1 (stereo not given) | – | inconclusive [inhibitor, full curve, poor fit]
COC(=O)C1OC2(OC1C(=O)OC)c1ccccc1-c1ccccc12 (stereo not given) | – | inconclusive [inhibitor, full curve]
COc1ccc(Cn2c(=O)[nH]c3cc(C(=O)NCCCN4CCCCCC4)ccc3c2=O)cc1 | – | inconclusive [inhibitor, single point]
COc1cc(/C=N/N(C)S(=O)(=O)c2ccc(C)cc2)cc([N+](=O)[O-])c1O | – | inconclusive [inhibitor, full curve, poor fit]
CCOc1ccccc1-c1n[nH]c(=S)o1 | inactive: -2.67% | –
COc1ccc(N2CC(O)=C(c3nc(-c4ccccc4)cs3)C2=N)cc1 | inactive: -5.74% | –
Cc1ccc(/C=N/Nc2ccccn2)s1 | – | inconclusive [inhibitor, single point]
Nc1ccc2nc(-c3ccc(N)c(Cl)c3)[nH]c2c1 | – | inconclusive [inhibitor, single point]
COc1cc(OC)c2c(c1)S(=O)(=O)C(c1ccccc1)=C2N | – | inconclusive [inhibitor, full curve]
Cc1nc2nc(Cc3ccccc3)nn2c(C)c1Cl | – | inconclusive [inhibitor, full curve, poor fit]

SMILES | activity change, negative = inhibition | Potency
CCCOc1ccc(C2C(C(=O)c3ccc(C)o3)=C(O)C(=O)N2Cc2cccnc2)cc1 (stereo not given) | – | inconclusive [inhibitor, partial curve, poor fit]
Cc1nn(Cc2ccc(F)cc2)c(C)c1NC(=O)c1noc2c1CCc1ccccc1-2 | – | inconclusive [inhibitor, full curve]
CCN(CC)c1ccc(CN(C(=O)c2cc(=O)c3ccccc3o2)C2CCS(=O)(=O)C2)cc1 (stereo not given) | inactive: 3.99% | –
O=c1[nH]nc(CNc2ccc(C(F)(F)F)cc2)c2ccccc12 | – | inconclusive [inhibitor, single point]
CN(Cc1ccccc1)c1ncnc2ccc(Br)cc12 | inactive: 1.65% | –
COc1cccc(NC(=O)CCC(=O)Nc2cc(OC)c(NC(=O)c3cccs3)cc2OC)c1 | inactive: -12.8% | –
COc1cccc(C(=O)COc2ccc3c(C)c(Cc4ccccc4)c(=O)oc3c2)c1 | – | inconclusive [inhibitor, full curve]
CCOc1ccc2nc(NC3=NC(c4ccc(OC)cc4)CC(=O)N3)nc(C)c2c1 (stereo not given) | inactive: -13.2% | –
COc1cccc(CN2CCN(c3nc4nonc4nc3NC3CC3)CC2)c1 | inactive: -12.1% | –
O=C(O)C1CCC(N2C(=O)c3c(Cl)c(Cl)c(Cl)c(Cl)c3C2=O)CC1 (stereo not given) | – | inconclusive [inhibitor, full curve, poor fit]
CC(=O)NS(=O)(=O)c1ccc(NC(=O)c2cc(-c3cccs3)nc3ccccc23)cc1 | – | inconclusive [inhibitor, full curve, poor fit]
Cn1c(=O)c2c(nc(NCc3ccco3)n2CCc2ccccc2)n(C)c1=O | – | inconclusive [inhibitor, partial curve, poor fit]
CCOC(=O)c1c(CN2CCN(C)CC2)oc2ccc(OC)cc12 | – | inconclusive [inhibitor, full curve]
COc1ccc(C(=O)C2CCCN(Cc3cnc(N4CCCC4)s3)C2)cc1OC (stereo not given) | inactive: 8.01% | –
CCN(CC)C(=S)Nc1ccc([N+](=O)[O-])cc1 | – | inconclusive [inhibitor, full curve, poor fit]
CC(O)CCc1nc2ccc(C(=O)O)cc2[nH]1 (stereo not given) | – | inconclusive [inhibitor, partial curve, poor fit]
NS(=O)(=O)c1cccc(NC(=O)COC(=O)Cc2ccc(S(=O)(=O)N3CCCCC3)s2)c1 | inactive: -5.2% | –
COc1ccccc1C(=O)COC(=O)c1ccccc1O | inactive: -7.87% | –
CC1CN(CCCCOc2ccc(F)cc2)CC(C)O1 (stereo not given) | – | inconclusive [inhibitor, full curve, poor fit]
CC1CCC2(CC1)NC(=O)N(CC(=O)Nc1cccnc1Cl)C2=O (stereo not given) | inactive: 1.68% | –
O=C1CCCC(O)=C1N=Nc1ccc(C(=O)O)cc1 | inactive: 1.01% | –
CN(C)C(=O)CN1C(=O)C2CC=C(Cl)CC2C1=O (stereo not given) | – | inconclusive [inhibitor, full curve, poor fit]
